# Some of the results follow. At the low end of the ranking, values are background and their order means little.
# Target: SIX1-Q177R homeodomain (UniProt Q15475)
# Test: universal protein binding microarray
# Conditions: Universal all-10-mer PBM (8x60K, AMADID 030236), 300 nM GST-tagged protein, Alexa Fluor 488 anti-GST; buffer, salt, pH and temperature not stated; high values mean tight binding; most listed sequences are background and not binding sites; double strand, one strand shown
row,Sequence,binding signal
1,AGTCCACG,-0.166 E-score
2,GAGAACCA,0.0219 E-score
3,AATATACA,0.18 E-score
4,AACCAAAA,-0.225 E-score
5,ACACATGG,0.185 E-score
6,CATCGGCC,-0.298 E-score
7,AAGCCTAT,-0.063 E-score
8,ACCCACCT,0.13 E-score
9,GGCCCCAA,-0.264 E-score
10,AGAAGTAT,-0.0733 E-score
11,ACTCCGGG,0.29 E-score
12,CACCAGTC,0.294 E-score
13,CTATACGA,-0.0257 E-score
14,CCCGCCCA,0.14 E-score
15,TCGGGCAA,-0.108 E-score
16,ACAAAGCG,-0.047 E-score
17,ACTTTGTC,-0.153 E-score
18,ATACCGCG,0.238 E-score
19,GACCCAAC,-0.0491 E-score
20,AACATTTG,-0.258 E-score
21,GTGAGAGA,-0.0536 E-score
22,CAAGCTAC,-0.215 E-score
23,CGTGACTC,0.207 E-score
24,GAGTCATA,0.184 E-score
25,AGTCAAAA,-0.171 E-score

row,Sequence,binding signal
1,GATTCCGC,-0.0781 E-score
2,AAACCAGA,0.0085 E-score
3,ATGACGTC,-0.254 E-score
4,GCTGGAGA,-0.245 E-score
5,AATTCTCT,-0.322 E-score
6,CCGCGGGA,-0.0491 E-score
7,TATGGGGA,0.0155 E-score
8,GCATGAAC,-0.0706 E-score
9,ATCGCCTC,-0.181 E-score
10,AAAACTGA,-0.0944 E-score
11,CGTCAGCA,-0.00873 E-score
12,CGTGTCTA,0.405 E-score
13,CTAAGGCC,-0.163 E-score
14,AAGACCGC,-0.145 E-score
15,ATGCTTCC,-0.202 E-score
16,ACGGTCCG,-0.185 E-score
17,TGATACCA,0.325 E-score
18,AGCCAATG,-0.262 E-score
19,GACAAACC,-0.144 E-score
20,CGATGGTC,-0.134 E-score
21,CCGACCAG,0.161 E-score
22,AGCTGTAC,-0.152 E-score
23,GACTGTAA,-0.00926 E-score
24,CATCATTC,-0.19 E-score
25,GTGCGCAC,0.175 E-score

row,Sequence,binding signal
1,AACGACGT,-0.175 E-score
2,GCTTTGAA,-0.144 E-score
3,CAGAGGGC,-0.216 E-score
4,GAGGGTAA,0.0979 E-score
5,AGTGGCAG,-0.194 E-score
6,CCAGAAGA,-0.13 E-score
7,ACCGATAT,-0.0234 E-score
8,CTCTCCCA,-0.217 E-score
9,CATTGCCC,0.077 E-score
10,GGGAGTAC,0.259 E-score
11,CTGCGAGA,-0.0889 E-score
12,CAGACAGC,-0.192 E-score
13,CCTTTCCA,-0.131 E-score
14,CTTCACGC,-0.13 E-score
15,GTTTCCGA,0.0664 E-score
16,CAGGGGGG,0.113 E-score
17,CATGTTGC,-0.226 E-score
18,CCACTAAA,-0.0417 E-score
19,CAATATTC,-0.177 E-score
20,CCCGGATC,0.259 E-score
21,CTGTAAAC,-0.25 E-score
22,ATATAACC,0.0694 E-score
23,AGCGATCC,-0.0268 E-score
24,GAGCAGCC,-0.0511 E-score
25,GCTAAAAA,-0.253 E-score

row,Sequence,binding signal
1,GACCACAC,0.269 E-score
2,CGTTATAG,-0.0254 E-score
3,ATAGATCC,-0.101 E-score
4,AGAGTAAA,0.00767 E-score
5,GTGGTTGA,-0.176 E-score
6,GGTACCAA,-0.0441 E-score
7,CAACCAGG,-0.0362 E-score
8,CAAAGCTC,-0.0733 E-score
9,CAAATGTA,-0.15 E-score
10,CGGCCAAG,-0.0728 E-score
11,GGAAGTGA,0.014 E-score
12,GACTTTCC,-0.21 E-score
13,AGTCGAAG,-0.213 E-score
14,GTCAAAGA,-0.11 E-score
15,ATGCCCAT,-0.111 E-score
16,TGGACCCA,-0.14 E-score
17,CGCAATTA,-0.0283 E-score
18,ACCCAAAC,0.091 E-score
19,CTCGTAAG,-0.00583 E-score
20,ACGCCTGA,0.0293 E-score
21,GTGAGTCA,0.0222 E-score
22,ATCCCGCG,0.0878 E-score
23,CACATCCC,-0.00158 E-score
24,ACCCACTG,0.181 E-score
25,GGGGTGGA,0.159 E-score

row,Sequence,binding signal
1,ATTATGAC,0.0242 E-score
2,AGCAGTTA,-0.124 E-score
3,ATCAGTAC,0.0475 E-score
4,ATTGATTA,-0.033 E-score
5,AAACATCT,-0.367 E-score
6,AAATGACT,-0.176 E-score
7,ATATAAAG,-0.176 E-score
8,ATGAACCA,-0.0367 E-score
9,AACGTCGC,-0.241 E-score
10,GAAGCCCA,-0.269 E-score
11,ATGTTAAA,-0.202 E-score
12,AGCCTTTG,-0.115 E-score
13,TTCGTAAA,-0.187 E-score
14,ATATGGTG,0.245 E-score
15,ATAACATA,-0.203 E-score
16,AAATACCG,-0.051 E-score
17,AACGATGG,-0.0417 E-score
18,CCTGGAAA,-0.0542 E-score
19,ATCGGGAG,-0.0418 E-score
20,TATCAATA,-0.0325 E-score
21,ATCAGTGC,-0.077 E-score
22,GCGCAGAC,-0.156 E-score
23,CCGAGGCC,-0.199 E-score
24,CATCCGGC,-0.0942 E-score
25,GTAACTAC,-0.0229 E-score

row,Sequence,binding signal
1,ATCCAGAG,0.0774 E-score
2,GTGACAGA,-0.157 E-score
3,GTGCACTA,0.126 E-score
4,ACAATAAG,0.115 E-score
5,CAGCGAGA,0.047 E-score
6,TATAGTAA,-0.0857 E-score
7,TGGTGACA,0.271 E-score
8,CAGCTTGG,-0.0981 E-score
9,GCTCTCAC,-0.221 E-score
10,AACCCTTA,-0.00294 E-score
11,ACAGACTG,-0.167 E-score
12,AAAATGAA,-0.14 E-score
13,AGATTTAT,-0.145 E-score
14,GACCGCTC,-0.297 E-score
15,CTACCGCC,-0.00202 E-score
16,AAAGCAAA,-0.279 E-score
17,CAACGGGC,-0.305 E-score
18,AAGGGTGA,-0.0417 E-score
19,TTAAGTAA,0.0624 E-score
20,CATACAGC,-0.0833 E-score
21,AATTGTTA,-0.263 E-score
22,GGTCGTAC,0.224 E-score
23,CGTGGCAG,-0.175 E-score
24,ATAGCTGC,-0.193 E-score
25,GAAATAAA,-0.128 E-score

row,Sequence,binding signal
1,ATGCTACA,0.0978 E-score
2,TAAGCTAA,-0.291 E-score
3,ACATGTGG,-0.17 E-score
4,GCTCTACC,0.0948 E-score
5,CAATAGAC,-0.201 E-score
6,CGACGTAA,-0.104 E-score
7,AAAAGGAC,-0.139 E-score
8,GATGCGAA,-0.187 E-score
9,CTACGTTC,-0.203 E-score
10,ACGGTCTG,0.0327 E-score
11,AACGTCTT,-0.237 E-score
12,ATCTTAAA,-0.17 E-score
13,TAGTGAGA,0.154 E-score
14,ATTGTGGA,0.0251 E-score
15,GAAGCTCC,-0.285 E-score
16,ATTAAAAA,-0.29 E-score
17,ATCTGGTC,-0.0419 E-score
18,CAACACCC,0.456 E-score
19,AAAAGGCT,-0.306 E-score
20,GAATATTA,-0.0116 E-score
21,CTTGACGC,-0.0465 E-score
22,CTGGAGGC,-0.106 E-score

# — PMC10668032
